Experimental data from PubChem BioAssay AID1508642 (National Center for Advancing Translational Sciences (NCATS), 2021).
Screen size: about 43,000 compounds; about 200 (0.47%) were called active. About 12% were inconclusive and are not listed. The call rests on the fitted dose curve; in most records, active means well fitted cell-killing curve with a large enough effect; inconclusive means small, poorly fitted or top-dose-only effect, or effect the other way; inactive means flat fitted curve, though single readings scatter. This is one part of the list.

Assay: Cell viability qHTS assay in S16 Pmp22-F2sN cells; further: nearly all actives have a fitted effect of over 65% in size
Conditions: S16 Pmp22-F2sN Schwann cells (luciferase reporters placed in the Pmp22 gene) viability, CellTiter-Glo, 24 h; series mostly up to 57.5 µM; activity change, negative = cytotoxicity: at the top concentration
Summary of the method: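 CellTiter-Glo counter-screen, qHTS, 1536-well. Cells: S16(c9) Pmp22-F2sN, 500-1,000/well in DMEM + 10% FBS. Cpd 23 nL pin transfer, 24 h, 37C/5% CO2. Read: luminescence, CCD imager.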
On the % scale 0 is the no-effect control and ±100 the full control effect.

**Q.** With `COc1ccccc1C(=O)CC1(O)C(=O)N(CC(N)=O)c2ccccc21` (configuration not stated) as the compound, how does the “activity change, negative = cytotoxicity” value read?
**A.** inactive: 3.54%

**Q.** For `CCC(=O)N1CCc2cc(S(=O)(=O)NC(Cc3ccccc3)C(=O)Nc3ccc(Cl)cc3)ccc21` (configuration not stated), which “activity change, negative = cytotoxicity” value is on record?
**A.** inactive: -14.7%

**Q.** For `COc1ccccc1C(=O)N1CCC(c2c[nH]c3ccccc23)(c2c[nH]c3ccccc23)CC1`, which “activity change, negative = cytotoxicity” value is on record?
**A.** inactive: -2.87%

**Q.** For `O=C(CSc1nc(-c2ccccc2)[nH]c1-c1ccc(F)cc1)NC1CCCC1`, which “activity change, negative = cytotoxicity” value is on record?
**A.** inactive: -18%

**Q.** With `CCCC(=O)Nc1c(C(=O)N2CCN(c3ccccc3)CC2)oc2ccccc12` as the compound, how does the “activity change, negative = cytotoxicity” value read?
**A.** inactive: -0.714%

**Q.** Which “activity change, negative = cytotoxicity” value does the source give for `CC(C)c1ccc(S(=O)(=O)Nc2cc3c(cc2NCc2ccccc2)n(C)c(=O)n3C)cc1` here?
**A.** inactive: -24.9%

**Q.** Which “activity change, negative = cytotoxicity” value does the source give for `O=C(CN1C(=O)COc2ccc(S(=O)(=O)N3CCCCCC3)cc21)N1CCN(c2cccc(Cl)c2)CC1` here?
**A.** inactive: 13%

**Q.** With `CC(C)(C)OC(=O)N1CCC(c2c(C(=O)O)cnn2-c2ccc(F)cc2F)CC1` as the compound, how does the “activity change, negative = cytotoxicity” value read?
**A.** inactive: 1.08%

**Q.** Which “activity change, negative = cytotoxicity” value does the source give for `CCN1CCN(C(c2ccc(Cl)cc2)c2c(O)cc(C)n(CCOC)c2=O)CC1` (configuration not stated) here?
**A.** inactive: -0.137%

**Q.** For `O=C(CSc1ncc(S(=O)(=O)c2ccc(Br)cc2)c(=O)[nH]1)NCc1ccccc1Cl`, which “activity change, negative = cytotoxicity” value is on record?
**A.** inactive: -6.38%

**Q.** For `Cc1nc2ncnn2c(C)c1CCC(=O)NCc1ccc(Cl)cc1`, which “activity change, negative = cytotoxicity” value is on record?
**A.** inactive: 2.45%

**Q.** Which “activity change, negative = cytotoxicity” value does the source give for `Cc1ccc(OCCSc2nc3ccccc3n2CCC(=O)O)cc1C` here?
**A.** inactive: 6.87%

**Q.** Which “activity change, negative = cytotoxicity” value does the source give for `CCOc1ccc(NC(=O)NC(CC)Cn2nnc3ccccc3c2=O)cc1` (configuration not stated) here?
**A.** inactive: 0.614%

**Q.** Which “activity change, negative = cytotoxicity” value does the source give for `COc1ccc(/C=C(\NC(=O)c2ccccc2)C(=O)NC2CCCCC2)cc1` here?
**A.** inactive: -1.75%

**Q.** With `CCCCn1cnc2cc(NC(=O)c3cc(OC)c(OC)c(OC)c3)ccc21` as the compound, how does the “activity change, negative = cytotoxicity” value read?
**A.** inactive: -0.268%

**Q.** With `Cc1cc(C)cc(N(CC(=O)Nc2ccc(C(F)(F)F)cc2)S(=O)(=O)c2c(C)[nH]c(=O)[nH]c2=O)c1` as the compound, how does the “activity change, negative = cytotoxicity” value read?
**A.** inactive: 3.74%

**Q.** For `COc1ccc(-c2cc(C(=O)Oc3ccc(Cl)cc3)c3ccccc3n2)cc1`, which “activity change, negative = cytotoxicity” value is on record?
**A.** inactive: -12.7%

**Q.** Which “activity change, negative = cytotoxicity” value does the source give for `Cc1cccc(C)c1NC(=O)C1CCN(S(=O)(=O)c2cccc3nsnc23)CC1` here?
**A.** inactive: 13.9%

**Q.** Which “activity change, negative = cytotoxicity” value does the source give for `COc1cc(Cl)c(C)cc1NC(=O)CSCc1nc(-c2ccc(OC)c(OC)c2)no1` here?
**A.** inactive: 7.38%

**Q.** For `Cn1c(NCc2ccccc2F)nc2ccccc21`, which “activity change, negative = cytotoxicity” value is on record?
**A.** inactive: 12.2%

**Q.** For `Cc1ccc(C)c(Cn2cc(CCC(=O)NC3CCCCC3)c3ccccc32)c1`, which “activity change, negative = cytotoxicity” value is on record?
**A.** inactive: 18.3%

**Q.** Which “activity change, negative = cytotoxicity” value does the source give for `Cc1ccc(-n2ncc3c(Nc4ccc5c(c4)OCCO5)ncnc32)cc1C` here?
**A.** inactive: -5.04%

**Q.** With `COc1ccc(CNC(=O)c2cnn(-c3ccc(C)cc3)c2C2CCN(C(=O)OC(C)(C)C)CC2)cc1` as the compound, how does the “activity change, negative = cytotoxicity” value read?
**A.** inactive: -6.38%

**Q.** With `Cc1ccc(NC(=O)Cn2ccn(Cc3ccc(Cl)cc3)c(=O)c2=O)cc1C` as the compound, how does the “activity change, negative = cytotoxicity” value read?
**A.** inactive: -0.615%

**Q.** Which “activity change, negative = cytotoxicity” value does the source give for `CCOC(=O)C1CCN(C(=O)c2ccc3c(c2)sc2nc(-c4ccc(OCC)cc4)cn23)CC1` here?
**A.** inactive: 8.55%

**Q.** With `COc1ccc(-c2nc(SCC(=O)NC3CCCC3)c(-c3ccccc3)[nH]2)cc1OC` as the compound, how does the “activity change, negative = cytotoxicity” value read?
**A.** inactive: -1.65%

**Q.** Which “activity change, negative = cytotoxicity” value does the source give for `CC(=O)c1cccc(-n2c(CCC(=O)O)ccc2-c2ccccc2)c1` here?
**A.** inactive: 22.6%

**Q.** For `COc1ccc(OC)c(Nc2cc(C(=O)NCc3ccccc3)c3ccccc3n2)c1`, which “activity change, negative = cytotoxicity” value is on record?
**A.** inactive: 13.8%

**Q.** Which “activity change, negative = cytotoxicity” value does the source give for `Cc1ccc(NC(=O)CC2Sc3ccccc3NC2=O)c(C)c1` (configuration not stated) here?
**A.** inactive: -0.605%

**Q.** Which “activity change, negative = cytotoxicity” value does the source give for `CCOC(=O)c1ccc(-c2ccc(/C=C(\C#N)C(=O)Nc3cccc(C)c3)o2)cc1` here?
**A.** inactive: 3.3%

**Q.** For `C=Cc1ccc(CSc2nc(-c3ccc(Cl)cc3)nc3c2Cc2c(CO)cnc(C)c2O3)cc1`, which “activity change, negative = cytotoxicity” value is on record?
**A.** inactive: 6.26%

**Q.** With `CCN1C(C(=O)c2ccccc2)=C(OC(=O)c2ccc(Cl)cc2)c2ccccc2S1(=O)=O` as the compound, how does the “activity change, negative = cytotoxicity” value read?
**A.** inactive: -7.21%

**Q.** For `CCc1ccc2oc(-c3cccc(NC(=O)c4ccc(-c5cccc([N+](=O)[O-])c5)o4)c3)nc2c1`, which “activity change, negative = cytotoxicity” value is on record?
**A.** inactive: 27.6%

**Q.** For `CCOc1ccc(Br)cc1C1C(C(=O)Nc2ccccc2OC)=C(C)Nc2nnnn21` (configuration not stated), which “activity change, negative = cytotoxicity” value is on record?
**A.** inactive: -7.02%

**Q.** Which “activity change, negative = cytotoxicity” value does the source give for `Cc1cccc(OC(C)C(=O)N2CCC(c3nc4ccccc4o3)CC2)c1C` (configuration not stated) here?
**A.** inactive: -1.83%

**Q.** For `CCOc1ccc(NCc2cccn2-c2nnc(N3CCC(C(=O)NC(C)c4ccccc4)CC3)s2)cc1` (configuration not stated), which “activity change, negative = cytotoxicity” value is on record?
**A.** inactive: -29.2%

**Q.** With `COc1ccc(-c2cc(C(F)(F)F)nc(NCc3ccccc3)n2)cc1OC` as the compound, how does the “activity change, negative = cytotoxicity” value read?
**A.** inactive: 22.1%

**Q.** Which “activity change, negative = cytotoxicity” value does the source give for `COc1cccc(CN2c3ccccc3-c3nc(SCC(=O)Nc4cccc(C)c4)ncc3S2(=O)=O)c1` here?
**A.** inactive: 11.5%

**Q.** Which “activity change, negative = cytotoxicity” value does the source give for `CC1CCc2c(sc3nnn(CC(=O)Nc4cccc(C(F)(F)F)c4)c(=O)c23)C1` (configuration not stated) here?
**A.** inactive: -2.5%

**Q.** With `COc1ccc(-n2c(=O)c3c4c(sc3n(Cc3ccccc3)c2=O)CCC4)c(OC)c1` as the compound, how does the “activity change, negative = cytotoxicity” value read?
**A.** inactive: -16.1%

**Q.** Which “activity change, negative = cytotoxicity” value does the source give for `CCn1c(=O)c(=O)n(CC)c2cc(N3CCCCC3)c(NC(=O)c3cccc(OC)c3)cc21` here?
**A.** inactive: 14.8%

**Q.** Which “activity change, negative = cytotoxicity” value does the source give for `Cc1oc(-c2ccc(C(=O)N(C)Cc3ccccc3)cc2)nc1CN1CCc2ccccc21` here?
**A.** inactive: -4.93%

**Q.** With `CCOC(=O)c1cccc(NC(=O)N2Cc3ccccc3Oc3ncccc32)c1` as the compound, how does the “activity change, negative = cytotoxicity” value read?
**A.** inactive: -2.98%

**Q.** With `CC(=O)N1c2ccc(S(=O)(=O)NCCc3cccc(C)c3)cc2CC1C` (configuration not stated) as the compound, how does the “activity change, negative = cytotoxicity” value read?
**A.** inactive: -9.11%

**Q.** Which “activity change, negative = cytotoxicity” value does the source give for `COc1ccc(N2CCN(CC(O)COc3ccc(C)c(C)c3)CC2)cc1` (configuration not stated) here?
**A.** inactive: -1.91%

**Q.** Which “activity change, negative = cytotoxicity” value does the source give for `CCOc1cccc(NC(=O)CSc2ncc(-c3ccc(Cl)cc3)[nH]2)c1` here?
**A.** inactive: 3.29%

**Q.** For `Cc1ccccc1NC(=O)CSc1ncc2c(n1)-c1ccccc1N(C)S2(=O)=O`, which “activity change, negative = cytotoxicity” value is on record?
**A.** inactive: 0.262%
